# Results: a collection of fitness landscapes (doi:10.1016/j.celrep.2020.107928)
# In all, about 81,000 sequences were measured (“one-hybrid fitness for binding NBS DNA”: median about -0.1, highest 2% from about 0.36 on). Some of the results follow.
# B1: Caulobacter ParB omega fusion; a variant is named by its letters at X, in order, B8GW30 (parent)
# chain: MESVVVGEPGMSEGRRGLGRGLSALLGEVDAAPAQAPGEQLGGSREAPIEILQRNPDQPRRTFREEDLEDLSNSIREKGVLQPILVRPSPDTAGEYQIVAGERAWRAAQRAGLKTVPIMVRELDDLAVLEIGIIENVQRADLNVLEEALSYKVLMEKFERTQENIAQTIGKSXSHVANXMRLLXLPDEVQSYLVSGELTAXHARAIAAAADPVALAKQIIEGGLSVRETEALARKAPNLSAGKSKGGRPPRVKDTDTQALESDLSSVLGLDVSIDHRGSTGTLTITYATLEQLDDLCNRLTRGI
# Variants of: B1
# Assay: one-hybrid fitness for binding NBS DNA (the Noc-binding site; scaled: cognate 1, non-cognate 0); higher = stronger binding
# Settings: with NBS DNA site
# How it was run: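 Bacterial one-hybrid selection in E. coli USO rpoZ- hisB- pyrF- with a HIS3 reporter carrying the site 19 bp from the promoter, screening Caulobacter ParB libraries with four specificity codons randomised (NNS). Cells grew 48 hours at 37°C on M9-minus-histidine plus 0.1 mM IPTG and 5 mM 3-AT. Plasmids before and after selection were Illumina-sequenced, three replicate libraries pooled, and variants under 10 reads dropped. Fitness is the log change in variant-to-wild-type read ratio, rescaled to cognate 1, non-cognate 0.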
row,Variant,one-hybrid fitness for binding NBS DNA
1,TAYP,≤ 0.2
2,TYYA,≤ 0.2
3,KIFR,≤ 0.2
4,QLPS,≤ 0.2
5,LHMV,≤ 0.2
6,ICNR,≤ 0.2
7,PTSG,≤ 0.2
8,EYSS,≤ 0.2
9,ALWC,≤ 0.2
10,TWNV,≤ 0.2
11,GSAM,≤ 0.2
12,LASC,≤ 0.2
13,KCML,≤ 0.2
14,WYVR,≤ 0.2
15,QDRI,≤ 0.2
16,SHAS,≤ 0.2
17,QTHK,0.293
18,ILVP,≤ 0.2
19,HCKL,≤ 0.2
20,DASQ,≤ 0.2
21,VQKV,≤ 0.2
22,IIMS,≤ 0.2
23,KGCT,≤ 0.2
24,WALR,≤ 0.2
25,HHHI,≤ 0.2
26,DTAR,≤ 0.2

row,Variant,one-hybrid fitness for binding NBS DNA
1,HVVC,≤ 0.2
2,NFRT,≤ 0.2
3,TTCR,≤ 0.2
4,EKLT,≤ 0.2
5,WLFT,≤ 0.2
6,QPTE,≤ 0.2
7,WLCG,≤ 0.2
8,QAIY,≤ 0.2
9,KCTI,≤ 0.2
10,RCDH,≤ 0.2
11,AMIC,≤ 0.2
12,GLRV,≤ 0.2
13,AEPD,≤ 0.2
14,PSGV,≤ 0.2
15,LVHT,≤ 0.2
16,HLHM,≤ 0.2
17,QLHN,≤ 0.2
18,EMRS,≤ 0.2
19,YMAE,≤ 0.2
20,RTYV,≤ 0.2
21,TKVW,≤ 0.2
22,HDNM,≤ 0.2
23,YQIW,≤ 0.2
24,PRMI,≤ 0.2
25,LKAC,≤ 0.2
26,AAET,≤ 0.2

row,Variant,one-hybrid fitness for binding NBS DNA
1,VQVS,≤ 0.2
2,SGLL,≤ 0.2
3,RNNT,0.289
4,PAQV,≤ 0.2
5,VRKI,≤ 0.2
6,LNPS,≤ 0.2
7,LQHR,≤ 0.2
8,EPES,≤ 0.2
9,LWDR,≤ 0.2
10,RHMY,≤ 0.2
11,EGSY,≤ 0.2
12,IFKG,≤ 0.2
13,RSTE,≤ 0.2
14,WIPH,≤ 0.2
15,IHKG,≤ 0.2
16,ARMH,≤ 0.2
17,HAIS,≤ 0.2
18,QFYM,≤ 0.2
19,MIFG,≤ 0.2
20,PVAE,≤ 0.2
21,SHMK,≤ 0.2
22,AYHA,≤ 0.2
23,NMLG,≤ 0.2
24,HLQF,≤ 0.2
25,RMCE,≤ 0.2
26,REAS,≤ 0.2

row,Variant,one-hybrid fitness for binding NBS DNA
1,RWQW,≤ 0.2
2,KTMG,≤ 0.2
3,GYFC,≤ 0.2
4,ESNW,≤ 0.2
5,PGEG,≤ 0.2
6,IDVT,≤ 0.2
7,LQLN,≤ 0.2
8,RPCT,≤ 0.2
9,HTNC,≤ 0.2
10,EPMR,≤ 0.2
11,STQK,≤ 0.2
12,HPTT,≤ 0.2
13,TLQF,≤ 0.2
14,AKAV,≤ 0.2
15,VGSC,≤ 0.2
16,PRMC,≤ 0.2
17,GAGT,≤ 0.2
18,PFPR,≤ 0.2
19,DSRT,≤ 0.2
20,KFHG,≤ 0.2
21,CFSR,≤ 0.2
22,DSKA,≤ 0.2
23,GMRD,≤ 0.2
24,LNAM,≤ 0.2
25,CERM,≤ 0.2
26,FDAG,≤ 0.2

row,Variant,one-hybrid fitness for binding NBS DNA
1,IYVY,≤ 0.2
2,IRYG,≤ 0.2
3,CYEG,≤ 0.2
4,RHPR,≤ 0.2
5,QPAI,≤ 0.2
6,TQAN,≤ 0.2
7,TGTT,≤ 0.2
8,QHSQ,≤ 0.2
9,RASL,≤ 0.2
10,NAHS,≤ 0.2
11,QVNP,≤ 0.2
12,ALSD,≤ 0.2
13,FNLT,≤ 0.2
14,IQPW,≤ 0.2
15,NMTE,≤ 0.2
16,SPAQ,≤ 0.2
17,NWTG,≤ 0.2
18,MRSS,≤ 0.2
19,CRCF,≤ 0.2
20,HHYC,≤ 0.2
21,GGVW,≤ 0.2
22,PRTT,≤ 0.2
23,TAVG,≤ 0.2
24,MVKM,≤ 0.2
25,FGSG,≤ 0.2
26,ACQG,≤ 0.2

row,Variant,one-hybrid fitness for binding NBS DNA
1,DSYK,≤ 0.2
2,VDNL,≤ 0.2
3,KVRL,≤ 0.2
4,KSKY,≤ 0.2
5,MYYG,≤ 0.2
6,LYAA,≤ 0.2
7,ILYV,≤ 0.2
8,KVYM,≤ 0.2
9,SDYW,≤ 0.2
10,RVIV,≤ 0.2
11,IHPG,≤ 0.2
12,KLGA,≤ 0.2
13,QWAA,≤ 0.2
14,LIRV,≤ 0.2
15,MADA,≤ 0.2
16,RRME,≤ 0.2
17,RMNC,≤ 0.2
18,MQLG,≤ 0.2
19,QNRM,≤ 0.2
20,QPGR,≤ 0.2
21,WHHG,≤ 0.2
22,SKAN,≤ 0.2
23,MPMW,≤ 0.2
